Measured values from PubChem BioAssay AID1963576 (National Center for Advancing Translational Sciences (NCATS), 2024).
Out of some 46,000 compounds screened, about 60 (0.1%) were called active. About 3% were inconclusive and are not listed. The call rests on the fitted dose curve; in most records, active means well fitted inhibition curve with a large enough effect; inconclusive means small, poorly fitted or top-dose-only effect; inactive means no such curve, though single readings can be large or run the other way. The list shows a part of the results.

assay: Primary qHTS assay for Inhibitors of ovarian cancer metastasis using an organotypic tumor microenvironment (TME) model.; further: nearly all actives have a fitted effect of over 65% in size;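 on activity change, negative = inhibition: plate controls were DMSO wells for no effect and tomatine positive control wells for full effect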; conditions: SKOV3ip1-GFP adhesion/invasion on 3D omental model, fluorescence; series mostly up to 45.8 µM; activity change, negative = inhibition: at the top concentration
Method in brief: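 Primary human omental fibroblast/mesothelial 3D culture pre-formed 48 h. SKOV3ip1-GFP cells added with compounds (0.36-46 umol/L), incubated 2 h RT/16 h 37 C, fixed; GFP cells quantified at 488/509 nm.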

Activity change, negative = inhibition, inactive:
CC(=O)Nc1ccc(NC(=O)c2cc3sccc3n2Cc2ccc(F)cc2)cc1 -4.1%
CCc1ccc(CN2CCc3nc(Nc4ccccc4)ncc3C2)cc1 5.11%
Cc1cccc2sc(N(Cc3cccnc3)C(=O)c3cccs3)nc12 0.919%
CCOc1cc2[nH]c(=O)n(CCCCC(=O)N3CCN(c4cccc(Cl)c4)CC3)c(=O)c2cc1OCC 0.533%
Cc1ccc(NC(=O)Cc2ccc(-n3c(C)nc4cccnc43)cc2)c(Cl)c1 8.92%
CCC(=O)N1CCc2cc(Br)cc(S(=O)(=O)CCC(=O)NCc3ccccc3OC)c21 -2.69%
Cc1ccc(-c2noc(-c3ccccc3NC(=O)c3ccccc3)n2)cc1 18.4%
CCCCN(CC)C(=O)CSc1nc2n[nH]c(C)c2c(=N)n1-c1cccc(Cl)c1 -8.98%
CCOC(=O)c1[nH]c(C)c(CCC(=O)N2CCN(c3cccc(OC)c3)CC2)c1C -4.56%
Cc1ccc(CNC(=O)C(=O)Nc2c3c(nn2-c2ccccc2)CSC3)cc1 -12.4%
COc1ccc(CCNC(=O)C(=O)Nc2ccccc2F)cc1 -1.73%
CC1CCN(S(=O)(=O)c2ccc3c(c2)N(CC(=O)NC(C)c2ccccc2)C(=O)CS3)CC1 (configuration not stated) 5.62%
COc1ccccc1CNS(=O)(=O)c1ccc2c(c1)CC(C)N2C(C)=O (configuration not stated) 2.44%
O=C(NCc1ccccc1)c1ccc(CNS(=O)(=O)c2ccc(Br)cc2)cc1 -3.89%
Cc1cc(C)c(NC(=O)c2cc(S(=O)(=O)N3CCC4(CC3)OCCO4)ccc2F)c(C)c1 4.46%
Cc1ccc(-c2nc(NC(=O)CSc3cc(C)c4ccccc4n3)ns2)cc1 -2.67%
CCCn1c(=O)c2[nH]c(-c3cnn(Cc4cccc(C(F)(F)F)c4)c3)nc2n(CC)c1=O 2.89%
COC(=O)c1ccc(NC(=O)CC2C(=O)N(c3cccc(OC)c3)C(=O)N2Cc2cccs2)cc1 (configuration not stated) -15.5%
CCc1ccc(NC(=O)N2CCOc3ccc(Cl)cc32)cc1 4.91%
COc1cc(Cl)c(S(=O)(=O)NCCc2c(C)[nH]c3c(C)cccc23)cc1Cl 40.2%
CCc1ccc(NC(=O)CSc2nc(=O)n(Cc3ccccn3)c3c2CCC3)cc1 6.05%
O=C(Nc1nnc(S(=O)(=O)N2CCCc3ccccc32)s1)c1cccc(Cl)c1 -7.47%
COc1cccc(C2C(C(=O)Nc3ccc(C)cc3C)=C(C)Nc3c(C(=O)Nc4ccccc4)cnn32)c1 (configuration not stated) -2.21%
CC1CCCN(C(=O)CSc2c3c(nc4cc(Cl)ccc24)CCCC3)C1 (configuration not stated) -13%
COC(=O)c1ccc(C2c3c(-c4ccccc4O)n[nH]c3C(=O)N2Cc2cccnc2)cc1 (configuration not stated) 15.4%
CCCSc1ncc(Cl)c(C(=O)Nc2ccc(S(=O)(=O)N(C)c3ccccc3)cc2)n1 -5.22%
CCN(CCCNC(=O)Cn1ncc2c3ccccc3n(C)c2c1=O)Cc1ccccc1 -1.44%
COc1ccc(NC(=O)c2cc(S(=O)(=O)N3CCOCC3)ccc2OC)cc1 9.3%
CCn1nnc2c(N3CCOCC3)nc(-c3ccc(NC(=O)Nc4ccc(C(=O)N5CCN(C)CC5)cc4)cc3)nc21 -16.1%
COc1ccc(S(=O)(=O)N2CCC(C(=O)Nc3ccc(Oc4ccccc4)cc3)CC2)cc1 -6.76%
CCc1cccc(C)c1NS(=O)(=O)c1c(C(=O)N2CCC(C)CC2)c(C)n(C)c1C -7.23%
NS(=O)(=O)c1cc(C(=O)O)c(NCc2ccco2)cc1Cl -20.1%
CC(C)OC(=O)[C@H](C)N[P@](=O)(OC[C@H]1O[C@@H](n2ccc(=O)[nH]c2=O)[C@](C)(F)[C@H]1O)Oc1ccccc1 1.36%
CCOc1ccccc1N(CC)C(=O)Cn1ncc2c([nH]c3ccccc32)c1=O 4.52%
Cc1nnc(N2CCC(C(=O)NC3CCCCC3)CC2)c2nn(-c3ccccc3)c(C)c12 -2.52%
COc1ccc(CNC(=O)c2cc3cc4cc(OC)ccc4nc3o2)cc1 4.48%
Cc1ccc(C)c(NC(=O)N2CCN(C(=O)c3nsc4ccccc34)CC2)c1 1.38%
COc1cc(Cl)c(C)cc1NC(=O)C1CCN(c2nc3ccccc3n3cccc23)CC1 -1.67%
COc1ccc(OC)c(NS(=O)(=O)c2ccc3c(c2)C(C)(C)C(=O)N3C)c1 -5.16%
COc1ccc(S(=O)(=O)Nc2cccc(-c3ccc(N4CCCC4)nn3)c2)c(OC)c1 -3.14%
CC(=O)c1ccc(NC(=O)c2nc3ccccc3nc2N2CCCCC2)cc1 21.5%
O=C(c1ccccc1)N1CCN(CCc2ccncc2)CC1 0.279%
COc1ccccc1C(=O)Nc1cccc(C(=O)OCc2cc(=O)n3cc(C)sc3n2)c1 20.7%
CCOc1ccc(CCNC(=O)c2cn(C)c3ccc(S(=O)(=O)N4CCCCC4)cc3c2=O)cc1OCC 6.76%
CC1=C(c2ccc(C)c(C)c2)S(=O)(=O)NC1=NCc1ccccc1Cl 15%
COC(=O)CN1C(=O)CSc2ccc(S(=O)(=O)Nc3cc(C)ccc3C)cc21 -0.239%
Cc1c(C(=O)Nc2cccc(C(F)(F)F)c2)oc2ccc3c(c12)C(=O)CC(C)(C)O3 3.52%
CCc1ccc(S(=O)(=O)Nc2cc3c(C(=O)OCc4ccccc4)c(C)oc3c3ccccc23)cc1 -0.939%
O=C(CNC(=O)c1ccc(F)cc1)OCc1cc(=O)n2nc(C3CC3)sc2n1 0.82%
O=C(CCn1cnc2ccccc2c1=O)NCc1ccccc1Cl -1.04%
CCc1nc2nc(C)c(NS(=O)(=O)c3ccc(C(C)(C)C)cc3)c(=O)n2[nH]1 -2.02%
Cn1c(=O)oc2cc(S(=O)(=O)NCCC(=O)Nc3ccc(F)cc3F)ccc21 6.74%
CCOC(=O)c1cc2c(=O)n3ccccc3nc2n(CCOC)c1=NC(=O)c1c(-c2ccccc2Cl)noc1C 13.2%
Cc1c(NC(=O)c2ccc(-c3cccc([N+](=O)[O-])c3)o2)cccc1-c1nc2cc(Cl)ccc2o1 26.1%
COc1cccc(-n2c(=O)c3sc4ccccc4c3n(CC(=O)NC3CCCCC3)c2=O)c1 6.98%
COc1ccc(CNC(=O)Cn2c(=O)nc(-c3ccccc3)c3ccccc32)cc1OC 0.153%
CC(C)CCNC(=O)Cc1ccc(NC(=O)N2CCCCc3ccccc32)cc1 9.14%
O=C(NCCC1=CCCCC1)c1ccc2c(c1)N(Cc1cccc(Cl)c1)C(=O)c1ccccc1S2=O (configuration not stated) 15.1%
CCN(CC)S(=O)(=O)c1ccc(OC)c(-n2cnnn2)c1 3.82%
Cc1ccc(S(=O)(=O)N(CC(=O)Nc2ccc3c(c2)OCO3)c2cc(Cl)cc(Cl)c2)cc1 3.23%
Cc1cc(OCC(=O)Nc2ncn[nH]2)ccc1Cl -7.11%
CCc1ccc(CNC(=O)c2nn(-c3ccc(C)cc3)c(=O)c3c2c2ccccc2n3C)cc1 -24.4%
CCCCn1c(SCC(=O)c2ccccc2)nc2c(sc3ccccc32)c1=O -2.55%
CCN(C(=O)Cn1nnc2sc3c(c2c1=O)CCC(C(C)(C)C)C3)c1cccc(C)c1 (configuration not stated) -7.96%
COC(=O)c1cc2oc3ccccc3c2n1Cc1nc(-c2ccc(Cl)cc2)oc1C -4.69%
Cc1ccc(-n2nc3ccc(NC(=O)COc4ccccc4C)cc3n2)cc1 -16.3%
COc1cc(CCC(=O)NCc2ccc3c(c2)CCN3C(=O)c2ccccc2)cc(OC)c1OC -7.72%
CC(=O)c1ccc(N2CCN(C(=O)C3CCCN(S(=O)(=O)c4ccc(Br)s4)C3)CC2)cc1 (configuration not stated) 0.371%
CSc1ccc(CCNC(=O)c2cc(C)nc3c2c(C)nn3-c2ccccc2)cc1 -22.5%
CC(=O)N1CCN(c2ccc(OCc3nn(C)c(C)c3-c3cccc4c(CCCOc5cc(C)c(Cl)c(C)c5)c(C(=O)O)n(Cc5cccnc5)c34)cc2)CC1 19.4%
Cc1ccc(-c2nnc(Nc3cccc(Cl)c3)c3ccccc23)cc1S(=O)(=O)N1CCCCC1 -11.2%
Cc1ccc(-n2nc(CO)c(C(=O)NCCCCc3ccccc3)n2)cc1C -19.4%
Cc1ccc(C)c(N2CCN(S(=O)(=O)c3cc(-c4cc(C)no4)ccc3C)CC2)c1 -20.7%
COc1ccc(-c2nnc(SCC(=O)NCCc3ccc(OC)c(OC)c3)nc2-c2ccc(OC)cc2)cc1 -9.94%
COc1ccc(-c2ccc3c(N)c(C(=O)Nc4ccc(C(F)(F)F)cc4)sc3n2)cc1OC -3.78%
CC1=Nc2cc(C(=O)NCc3ccccc3Cl)ccc2Sc2c(C)ccc(C)c21 -1.75%

outcome, inactive:
CCOc1ccc(NC(=O)Cn2ncc3c2-c2cc(C)ccc2OC3)cc1
COc1ccccc1C(=O)NCCn1cc(SCC(=O)Nc2ccccc2F)c2ccccc21
CC(C)Cn1cc(NC(=O)N2CCN(c3cccc(Cl)c3)CC2)c2ccccc2c1=O
Cc1ccc(C)c(N2CCN(S(=O)(=O)c3ccc4[nH]c5c(c4c3)CCCCC5)CC2)c1
O=C(Nc1cc(-c2nc3cc(Cl)ccc3o2)ccc1Cl)c1ccco1
COc1ccc(Cn2c(C(=O)O)c(CNCc3ccccc3F)c3ccc(OC)cc32)cc1
COc1cccc(CNC(=O)c2ccc3c(c2)c(C)c(C)n3Cc2ccccc2)c1
CCOC(=O)c1c(C)[nH]c(C)c1S(=O)(=O)N1CCC(C(=O)Nc2cc(Cl)ccc2OC)CC1
Cc1cc(C)c(NC(=O)c2sc3nc(C)cc(C)c3c2NC(=O)c2ccccc2)c(C)c1
CCC(=O)N1c2ccccc2CC1C(=O)NCCc1ccc(OC)c(OC)c1 (configuration not stated)
CCc1nn2c(=O)cc(COC(=O)COc3ccc(OC)cc3)nc2s1
COc1ccc(-c2nc(C)c(CCNS(=O)(=O)c3cc(Cl)ccc3Cl)s2)cc1
CCCCC(=O)NC1CC(=O)N(c2ccc3c(c2)OCCO3)C1 (configuration not stated)
Cc1nc2c(-c3ccc(F)cc3)c(C)nn2c(C)c1CCC(=O)N1CCN(c2ccccc2)CC1
CCC1CN(S(=O)(=O)c2cc(-c3cc(C)no3)ccc2C)c2cc(C)ccc2O1 (configuration not stated)
Cc1nc2cccnc2n1-c1cccc(C(=O)N2CCN(c3cccc(Cl)c3)CC2)c1
